Data reported in the supplement of paper PMC8728848.
The other results are listed elsewhere or left out.

Legend:
Assay in all cases: glycan array binding signal (z-score within array); higher = stronger binding
Conditions in all cases: glycan notation: IUPAC condensed, linker removed
[1] = molecular target: GlcNAc(b1-3)Gal(b1-4)GlcNAc(b1-3)Gal(b1-4)GlcNAc(b1-2)Man(a1-3)[GlcNAc(b1-3)Gal(b1-4)GlcNAc(b1-3)Gal(b1-4)GlcNAc(b1-2)Man(a1-6)]Man(b1-4)GlcNAc(b1-4)GlcNAc
Outline: (§1)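 Negative Z-scores can be read as non-binding. The Z-score is calculated within each array and then averaged across arrays of one protein sequence at different concentrations or buffers and across linkers. Arrays, 3228 in all, were curated from the Consortium for Functional Glycomics database and kept only where the protein sequence was available.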

[2] = molecular target: GlcNAc(b1-3)Gal(b1-4)GlcNAc(b1-3)Gal(b1-4)GlcNAc(b1-2)Man(a1-3)[GlcNAc(b1-3)Gal(b1-4)GlcNAc(b1-3)Gal(b1-4)GlcNAc(b1-2)Man(a1-6)]Man(b1-4)GlcNAc(b1-4)[Fuc(a1-6)]GlcNAc
Outline: as §1

[3] = molecular target: GlcNAc(b1-3)Gal(b1-4)GlcNAc(b1-3)Gal(b1-4)GlcNAc(b1-2)[GlcNAc(b1-3)Gal(b1-4)GlcNAc(b1-3)Gal(b1-4)GlcNAc(b1-6)]Man(a1-6)[GlcNAc(b1-3)Gal(b1-4)GlcNAc(b1-3)Gal(b1-4)GlcNAc(b1-2)Man(a1-3)]Man(b1-4)GlcNAc(b1-4)[Fuc(a1-6)]GlcNAc
Outline: as §1

[4] = molecular target: GlcNAc(b1-3)Gal(b1-4)GlcNAc(b1-3)Gal(b1-4)GlcNAc(b1-3)Gal(b1-4)GlcNAc(b1-2)Man(a1-3)[GlcNAc(b1-3)Gal(b1-4)GlcNAc(b1-3)Gal(b1-4)GlcNAc(b1-3)Gal(b1-4)GlcNAc(b1-2)Man(a1-6)]Man(b1-4)GlcNAc(b1-4)GlcNAc
Outline: as §1

[5] = molecular target: GlcNAc(b1-3)Gal(b1-4)GlcNAc(b1-3)Gal(b1-4)GlcNAc(b1-3)Gal(b1-4)GlcNAc(b1-2)Man(a1-3)[GlcNAc(b1-3)Gal(b1-4)GlcNAc(b1-3)Gal(b1-4)GlcNAc(b1-3)Gal(b1-4)GlcNAc(b1-2)Man(a1-6)]Man(b1-4)GlcNAc(b1-4)[Fuc(a1-6)]GlcNAc
Outline: as §1

[6] = molecular target: GlcNAc(b1-3)Gal(b1-4)GlcNAc(b1-3)Gal(b1-4)GlcNAc(b1-3)Gal(b1-4)GlcNAc(b1-2)[GlcNAc(b1-3)Gal(b1-4)GlcNAc(b1-3)Gal(b1-4)GlcNAc(b1-3)Gal(b1-4)GlcNAc(b1-6)]Man(a1-6)[GlcNAc(b1-3)Gal(b1-4)GlcNAc(b1-3)Gal(b1-4)GlcNAc(b1-3)Gal(b1-4)GlcNAc(b1-2)Man(a1-3)]Man(b1-4)GlcNAc(b1-4)[Fuc(a1-6)]GlcNAc
Outline: as §1

[7] = molecular target: GlcNAc(b1-3)Gal(b1-4)GlcNAc(b1-3)Gal(b1-4)GlcNAc(b1-3)Gal(b1-4)GlcNAc(b1-3)Gal(b1-4)GlcNAc(b1-2)Man(a1-3)[GlcNAc(b1-3)Gal(b1-4)GlcNAc(b1-3)Gal(b1-4)GlcNAc(b1-3)Gal(b1-4)GlcNAc(b1-3)Gal(b1-4)GlcNAc(b1-2)Man(a1-6)]Man(b1-4)GlcNAc(b1-4)GlcNAc
Outline: as §1

[8] = molecular target: GlcNAc(b1-3)Gal(b1-4)GlcNAc(b1-3)Gal(b1-4)GlcNAc(b1-3)Gal(b1-4)GlcNAc(b1-3)Gal(b1-4)GlcNAc(b1-2)Man(a1-3)[GlcNAc(b1-3)Gal(b1-4)GlcNAc(b1-3)Gal(b1-4)GlcNAc(b1-3)Gal(b1-4)GlcNAc(b1-3)Gal(b1-4)GlcNAc(b1-2)Man(a1-6)]Man(b1-4)GlcNAc(b1-4)[Fuc(a1-6)]GlcNAc
Outline: as §1

[9] = molecular target: GlcNAc(b1-3)Gal(b1-4)GlcNAc(b1-3)Gal(b1-4)GlcNAc(b1-3)Gal(b1-4)GlcNAc(b1-3)Gal(b1-4)GlcNAc(b1-2)[GlcNAc(b1-3)Gal(b1-4)GlcNAc(b1-3)Gal(b1-4)GlcNAc(b1-3)Gal(b1-4)GlcNAc(b1-3)Gal(b1-4)GlcNAc(b1-6)]Man(a1-6)[GlcNAc(b1-3)Gal(b1-4)GlcNAc(b1-3)Gal(b1-4)GlcNAc(b1-3)Gal(b1-4)GlcNAc(b1-3)Gal(b1-4)GlcNAc(b1-2)Man(a1-3)]Man(b1-4)GlcNAc(b1-4)[Fuc(a1-6)]GlcNAc
Outline: as §1

[10] = molecular target: GlcNAc(b1-3)Gal(b1-4)GlcNAc(b1-3)Gal(b1-4)GlcNAc(b1-3)GalNAc
Outline: as §1

[11] = molecular target: GlcNAc(b1-3)Gal(b1-4)GlcNAc(b1-3)GalNAc
Outline: as §1

[12] = molecular target: GlcNAc(b1-3)Gal(b1-4)GlcNAc(b1-3)[GlcNAc(b1-3)Gal(b1-4)GlcNAc(b1-3)]GalNAc
Outline: as §1

[13] = molecular target: GlcNAc(b1-3)Gal(b1-4)GlcNAc(b1-6)[Gal(b1-3)]GalNAc
Outline: as §1

[14] = molecular target: GlcNAc(b1-3)Gal(b1-4)GlcNAc(b1-6)[GlcNAc(b1-3)Gal(b1-3)]GalNAc
Outline: as §1

[15] = molecular target: GlcNAc(b1-3)Gal(b1-4)GlcNAc(b1-6)[GlcNAc(b1-3)]Gal(b1-4)GlcNAc
Outline: as §1

GlcNAc(b1-3)GalNAc = molecular target: GlcNAc(b1-3)GalNAc
Outline: as §1

GlcNAc(b1-3)Man = molecular target: GlcNAc(b1-3)Man
Outline: as §1

[16] = molecular target: GlcNAc(b1-3)[GlcNAc(b1-4)][GlcNAc(b1-6)]GlcNAc
Outline: as §1

[17] = molecular target: GlcNAc(b1-3)[GlcNAc(b1-6)]Gal(b1-4)GlcNAc
Outline: as §1

[18] = molecular target: GlcNAc(b1-3)[GlcNAc(b1-6)]GalNAc
Outline: as §1

[19] = molecular target: GlcNAc(b1-4)Gal(b1-4)GlcNAc
Outline: as §1

GlcNAc(b1-4)GlcNAc = molecular target: GlcNAc(b1-4)GlcNAc
Outline: as §1

[20] = molecular target: GlcNAc(b1-4)GlcNAc(b1-4)GlcNAc
Outline: as §1

B1: AT5G01260(PC)(40) (Arabidopsis thaliana), Q9LFB0 (protein)
chain: MIGIGRTLTSSSPSKIILEDLPPGIYRYGTEIFTSVPRKTFHHIKFLRLDSAQSSRILKPVPLRSSSIKDSQVNVEDEEIEASNKTVRVRFQLRKECVFGEHFFIVGDDPVFGGLWDPETALPLNWSDGNVWTVDLDLPVGRLVEFKLLLKAQTGEILWQPGPNRALETWETNKTIRICEDWDNADLQMMIEEDFVPYTNISSIGSEDEDEVLGSVQQNSSVVAVENAGYVSDESAQNSSFSIQSEKTMEPSNGALTAREVIKEAMFTEEESPVLVPGLIPLSDLDNEQVEVINEGKAETFPEVDKKQEPKAERNKKAKVKAISLFEKSEQEAVKSVEQRQYNAVEEEQQRLETEPLGTPDVLFENDIQWGRRTLYKLLSNFRLF
[1]
  glycan array binding signal (z-score): 0.666
[2]
  glycan array binding signal (z-score): 0.497
[3]
  glycan array binding signal (z-score): 0.144
[4]
  glycan array binding signal (z-score): 0.239
[5]
  glycan array binding signal (z-score): -0.141
[6]
  glycan array binding signal (z-score): -0.177
[7]
  glycan array binding signal (z-score): -0.508
[8]
  glycan array binding signal (z-score): -0.228
[9]
  glycan array binding signal (z-score): 0.133
[10]
  glycan array binding signal (z-score): -0.021
[11]
  glycan array binding signal (z-score): 0.047
[12]
  glycan array binding signal (z-score): 0.401
[13]
  glycan array binding signal (z-score): 0.195
[14]
  glycan array binding signal (z-score): -0.71
[15]
  glycan array binding signal (z-score): -1.02
GlcNAc(b1-3)GalNAc
  glycan array binding signal (z-score): -0.005
GlcNAc(b1-3)Man
  glycan array binding signal (z-score): -0.086
[16]
  glycan array binding signal (z-score): 0.016
[17]
  glycan array binding signal (z-score): -0.382
[18]
  glycan array binding signal (z-score): 0.081
[19]
  glycan array binding signal (z-score): -0.569
GlcNAc(b1-4)GlcNAc
  glycan array binding signal (z-score): -0.477
[20]
  glycan array binding signal (z-score): 0.078
